Results as given in PubChem BioAssay AID686971 (National Center for Advancing Translational Sciences (NCATS), 2013).
Out of some 360,000 compounds screened, about 7,500 (2.1%) were called active. The inconclusive results got no clear call from the source; some entries with a clear call stand among them for comparison. Calls come from the whole dose curve; as a rule, active = well fitted cell-killing curve with a large enough effect; inconclusive = small, poorly fitted or top-dose-only effect, or effect the other way, or another doubt; inactive = no such curve, though single readings can be large or run the other way. Potencies of inconclusive entries are left out as doubtful fits.

experiment: qHTS for induction of synthetic lethality in tumor cells producing 2HG: qHTS for the HT-1080-IDH1KD cell line; conditions: HT-1080 IDH1 knockdown viability, ATP luminescence, 48 h; activity, negative = toxicity: at 46.1 µM (top of the series) unless noted
Description: Unbiased genomic sequencing for 22 glioma genomes found recurrent mutation of IDH1 on chromosome 2q33, a gene encoding the cytosolic isoform of IIDH1 associated with the tri-carboxylic acid cycle (TCA) that catalyzes the oxidative decarboxylation of isocitrate, yielding alpha-ketoglutarate and CO2 via NADP+ to NADPH conversion. Subsequent studies confirmed the recurrent IDH mutations in up to 70% of secondary gliomas and in 10% of AML cases. In addition, the somatic mutation of cancer-associated IDH1 is a point mutation resulting in various amino-acid substituents at Arginine132 (IDH1 R132), a key residue found in the enzyme's active site that when mutated, results in the loss-of-function in metabolizing isocitrate but confers a gain-of-function to produce the oncometabolite 2-hydroxyglutarate (2HG). This in effect defines IDH1 as an oncogene and provides an extraordinary opportunity to discover chemical probes against mutant IDH1 that may translate into much needed new therapies for glioma and AML patients.
This assay aims to perform a synthetic-lethal screen for chemical probes specific for 2HG-producing tumor cells using matched paired cell lines (1) HT-1080-NT fibrosarcoma cell line that overproduces 2HG and (2) HT-1080-IDH1KD cell line which has IDH1 expression knocked-down. Desirable compounds are toxic to the NT fibrosarcoma cell line but not to the IDH1KD cell line. The data in this AID corresponds to the results of the qHTS against the HT-1080 IDH1KD cell line.
[1] Dang L, Jin S, Su SM. IDH mutations in glioma and acute myeloid leukemia. Trends of Mol Med. 2010; 16(9): 387-97.
[2] Dang L et al. Cancer-associated IDH1 mutations produce 2-hydroxyglutarate. Nature. 2010; 465(7300):966.
Molecular Libraries Probe Production Centers Network [MLPCN]
NIH Chemical Genomics Center [NCGC]
Assay Submitter (PI): Lenny Dang Ph.D., Agios Pharmaceuticals
Suspensions of trypsinized HT-1080-IDH1KD cells were dispensed into white, tissue culture-treated, solid 1536-well plates at 5uL/well (750 cells/well final concentration) in RPMI medium supplemented with 5% FBS. Plates were incubated at 37 degrees C for 2 hours, after which 23 nL of compounds or DMSO were delivered to each well using a pin tool. Plates were then incubated at 37 degrees C for an additional 48 hours. CellTiter-Glo viability reagent (Promega) was dispensed into wells (2.5uL/well) and incubated at room temperature for 10 minutes. The plates were measured on a PerkinElmer ViewLux plate reader for luminescent signal (clear filter, 1 sec exp.). DMSO-treated control wells and media-only (no cells) control wells were used to normalize %Activity of identified toxic compounds; DMSO-treated wells corresponded to 0%Activity (100% viability), while media-only controls were used to normalize 100%Activity (0% viability). To minimize variability between cell lines, both HT-1080-NT and HT-1080-IDH1KD lines were dispensed and treated with identical compound series in single batches.
Concentration-response curves were fitted to the signals arising from the resulting luminescence. The concentration-effect curves were then classified based on curve quality (r2), response magnitude and degree of measured activity, and compounds were subsequently categorized based on their curve class.
Potency is the fitted concentration of half-maximal effect; tags give direction and shape of the fitted curve.

Compound	Potency	activity, negative = toxicity
O=c1[nH]c(=S)n(CCC2=CCCCC2)c(O)c1/C=N/Nc1ccccc1	inconclusive [cytotoxic, single point]	
O=[N+]([O-])c1c2ccccc2cc2ccccc12		inactive: -0.563%
CCN(CC)c1ccc(CNCCc2ccccc2F)cc1	active: 18.4 µM	
Cc1cccc(CC(c2cccc(C)c2)N(C)C)c1 (stereo not given)		inactive: 7.69%
Cn1ncnc2c(=O)n(C)c(=O)nc1-2	active: 1.03 µM	
COc1ccc(-n2nnnc2C(c2ccccc2)N2CCC(n3c(=O)[nH]c4ccccc43)CC2)cc1 (stereo not given)	inconclusive [cytotoxic, single point]	
O=c1oc2ccccc2n1CSC1=NCCS1	inconclusive [cytotoxic, single point]	
C[C@H]1CCC[C@H](O)CCCCCc2cc(O)cc(O)c2C(=O)O1	inconclusive [cytotoxic, single point]	
C=CCn1c(O)c(/C(C)=N/N2CCN(C)CC2)c(=O)[nH]c1=O		inactive: -4.04%
C=C1C(=O)O[C@H]2[C@H]1[C@H](OC(=O)CC(=O)O[C@@H]1C[C@@H](C)[C@@H]3C=CC(=O)[C@@]3(C)[C@H]3OC(=O)C(=C)[C@H]13)C[C@@H](C)[C@H]1C=CC(=O)[C@]12C	inconclusive [cytotoxic, single point]	
CC(C)(C)c1ccc(/C=C2\Oc3cc(OC(=O)N4CCOCC4)ccc3C2=O)cc1	active: 18.4 µM	
O=C(c1ccc(Cl)cc1)C1CCCN(Cc2ccc3c(c2)OCCO3)C1 (stereo not given)		inactive: -12.6%
N#Cc1c(N)nc(SCc2ccncc2)c(C#N)c1-c1cccs1	inconclusive [cytotoxic, partial curve]	
CC(/C=N/NC(=O)c1cc(-c2ccncc2)nc2ccccc12)=C\c1ccco1	active: 1 µM	
N#CCCn1cc(C(=O)Nc2ccc(F)cc2)c(-c2ccc([N+](=O)[O-])cc2)n1	inconclusive [cytotoxic, single point]	
Oc1ccc2c3c1OC1c4oc5ccccc5c4C[C@@]4(O)[C@@H](C2)N(CC2CC2)CC[C@]314 (stereo not given in full)	inconclusive [cytotoxic, single point]	
Cc1ccc(-c2nc(N(C)C3CCN(C)CC3)c3ccccc3n2)cc1	active: 15.8 µM	
CC(N)C(=O)NC1C2C(=C(O)CC(O)C2O)C(=O)OC1(C)C(Cl)Cl (stereo not given)	active: 0.92 µM	
CCOC(=O)[C@]12Cc3cc(OC)ccc3[C@H]1N(C1CCCCC1)C(=O)c1ccccc12	active: 2.31 µM	
COc1ccc(-n2c(O)c(/C=C3\C=Nc4ccc(Br)cc43)c(=O)[nH]c2=O)c(OC)c1	inconclusive [cytotoxic, single point]	
CC(C)N1C(=O)/C(=C/C=C/c2ccco2)C(=O)N(Cc2ccco2)C1=O	inconclusive [cytotoxic, single point]	
Cc1ccc2c(c1)C1CN(C)CCC1N2C(=S)Nc1cccnc1 (stereo not given)	inconclusive [cytotoxic, single point]	
OC(CCNCCc1c[nH]c2ccccc12)C(F)(F)Cl (stereo not given)		inactive: 10.8%
C=C(C)COc1ccc(-c2n[nH]c(C)c2-c2ccc(Br)cc2)c(O)c1	active: 10 µM	

Compound	Potency	activity, negative = toxicity
FC(F)(F)c1cccc(C2NCc3ccccc3-n3cccc32)c1 (stereo not given)	inconclusive [cytotoxic, single point]	
Nc1ccc2c3c(cccc13)-c1ccccc1-2	inconclusive [cytotoxic, single point]	
CCCCCCn1c(N)c(C(=O)NCCN2CCOCC2)c2nc3ccccc3nc21	inconclusive [cytotoxic, single point]	
O=C(c1cccc(C(F)(F)F)c1)N1C[C@H]2C[C@@H](C1)c1cccc(=O)n1C2		inactive: 3.74%
Cc1ccc(-c2cc(-c3ccc(C)cc3)[n+](-c3ccccc3)c(-c3ccc(C)cc3)c2)cc1	active: 7.31 µM	
N#CC1=C(N)Oc2c(c(=O)sc3ccccc23)C1c1cccnc1 (stereo not given)	active: 4.61 µM	
O=C(Nc1ccc(Cl)cc1C(=O)c1ccccc1)c1ccc(Br)o1	inconclusive [cytotoxic, single point]	
CCCCCCC(=O)N/N=C/c1c(O)n(CCCC)c(=S)[nH]c1=O	inconclusive [cytotoxic, single point]	
CC1CC(C)CC(C)C(O)C(C#N)=CC=CCC(C2CCCC2C(=O)O)OC(=O)CC(O)C(C)C1 (stereo not given)	active: 0.184 µM	
Oc1cc(Cl)c(Cl)c(Cl)c1	inconclusive [cytotoxic, single point]	
COc1ccc(C(c2nnnn2Cc2ccccc2)N2CCC(n3c(=O)[nH]c4ccccc43)CC2)cc1 (stereo not given)	inconclusive [cytotoxic, single point]	
COc1ccccc1N1CCN(S(=O)(=O)c2c(C)ccc3nsnc23)CC1	inconclusive [cytotoxic, single point]	
CCOC(=O)c1c(-c2ccccc2)oc2ccc(OC(=O)N(C)C)cc12	inconclusive [cytotoxic, single point]	
COc1ccccc1N1CCN(CCc2c[nH]c3cc4c(cc23)OCO4)CC1	inconclusive [cytotoxic, full curve, poor fit]	
CN1Cc2cnnn2-c2ccccc2C1C#N (stereo not given)	inconclusive [cytotoxic, single point]	
Cc1ccccc1N1C(=O)NC(=O)/C(=C\c2ccc3c(c2)CCCN3Cc2ccccc2)C1=O	inconclusive [cytotoxic, single point]	
Cn1cc([N+](=O)[O-])c(C(=O)Nc2ccc3c(C(F)(F)F)cc(=O)oc3c2)n1	inconclusive [cytotoxic, single point]	
O=C1NCN(c2ccccc2)C12CCN(C(c1cccs1)c1nnnn1C1CCCCC1)CC2 (stereo not given)	inconclusive [cytotoxic, single point]	
Cc1cc(OCCCC(=O)NCc2cccs2)ccc1Cl		inactive: -5.32%
O=c1c2ccccc2nc(/C=C/c2cccnc2)n1Cc1ccccc1	inconclusive [cytotoxic, single point]	
O=C(c1ccc(Cl)cc1)C1CCCN(Cc2cccc3ncccc23)C1 (stereo not given)		inconclusive: -30.1% [cytotoxic]
O=C(CNC(=O)c1ccc(Cl)cc1)Nc1ccc(Br)cc1C(=O)c1ccccc1	inconclusive [cytotoxic, single point]	
Cc1cc(N(C)C)ccc1N=Nc1ccc(N)cc1	inconclusive [cytotoxic, partial curve]	
CCCN1CCc2cccc3c2[C@H]1Cc1ccc(O)c(O)c1-3	active: 23.1 µM	

Compound	Potency	activity, negative = toxicity
O=c1c2ccccc2nc(-c2ccc(Cl)cc2Cl)n1-c1nccs1	inconclusive [cytotoxic, single point]	
CCCCn1c(=O)c(C=Nc2cccnc2Cl)c(O)n(CCCCl)c1=O		inactive: -1.26%
BrCC(Br)C1CCC(Br)C(Br)C1 (stereo not given)		inactive: 7.01%
CC[n+]1c(/C=C/C=C/c2ccc(N(C)C)cc2)sc2ccccc21	active: 7.31 µM	
COC(=O)C1C2c3ccccc3C(c3ccccc32)C1C(=O)OC (stereo not given)		inactive: -0.185%
O=c1[nH]c2ccccc2n1C1CCN(Cc2ccc(-c3[nH]c4cc5ncnc5cc4nc3-c3ccccc3)cc2)CC1	inconclusive [cytotoxic, partial curve]	
CSc1ccccc1C(=O)C1CCCN(Cc2cccc(C)n2)C1 (stereo not given)	inconclusive [cytotoxic, single point]	
Fc1ccc(CCNCc2ccc(Cl)c(Cl)c2)cc1	inconclusive [cytotoxic, single point]	
Cc1cccc2nc(-c3ccccc3)c(-c3ccc(CN4CCC(n5c(=O)[nH]c6ccccc65)CC4)cc3)nc12	inconclusive [cytotoxic, single point]	
c1cc(CNCCc2ccc3c(c2)OCO3)ccn1		inactive: -1.55%
CNC(C)Cc1ccccc1Sc1ccc(O)cc1 (stereo not given)	inconclusive [cytotoxic, single point]	
O=c1[nH]c2ccccc2n1C1CCN(C(c2cccc3ccccc23)c2nnnn2-c2ccc3c(c2)OCCO3)CC1 (stereo not given)	inconclusive [cytotoxic, partial curve]	
O=C(O)C1Cc2ccccc2N2CCCC12 (stereo not given)		inactive: -7.39%
COc1cccc(N2C(=O)NC(=O)/C(=C/c3ccc([N+](=O)[O-])s3)C2=O)c1	inconclusive [cytotoxic, single point]	
N#C/C(N)=C(/N)C#N		inactive: -0.0471%
Cc1cc(C)nc(N2CCCC(C(=O)Nc3nc4ccc(S(C)(=O)=O)cc4s3)C2)n1 (stereo not given)	inconclusive [cytotoxic, single point]	
O=C(NCCN1CCC2(CC1)C(=O)NCN2c1cccc(F)c1)c1ccc2ccccc2c1	active: 20.6 µM	
COc1cccc(Cn2c(-c3cccs3)noc2=O)c1	inconclusive [cytotoxic, partial curve]	
Cc1oc(-c2ccc(F)cc2F)nc1CN1C[C@@H]2C[C@@H](C1)c1cccc(=O)n1C2		inactive: 3.61%
O=C1/C(=C/c2ccccc2)C[C@@]2(O)[C@H]3Cc4ccc(O)c5c4[C@@]2(CCN3CC2CC2)C1O5 (stereo not given in full)	active: 3.66 µM	
O=S(=O)(c1cc(Cl)cc(Cl)c1)N1Cc2cc(-c3cccc(F)c3)ccc2-n2nncc2C1		inactive: 6.96%
COC(=O)[C@]12OC[C@]34C([C@@H](O)[C@@H]1O)[C@]1(C)CC(=O)C(O)=C(C)[C@@H]1C[C@H]3OC(=O)[C@H](O)[C@@H]24 (stereo not given in full)	inconclusive [cytotoxic, full curve]	
